Experimental findings from the supplement of paper PMC4604168 (melanoma cell lines) are described below.

SMILES strings stand for the structures. The list shows a part of the results. Many values rest on one well or one pass, so single values are uncertain.
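Also: cell number obtained by counting DAPI-stained nuclei in high-throughput microscope images with image analysis software, screen run in 1,536-well plates.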

The test system of the experiment is WM3526. Description: cell count relative to DMSO control; melanoma cells; higher = more viable cells. To be noted: library dose: low library concentration; 72 h.
Take `CC(=O)O[C@@]12CO[C@@H]1C[C@H](O)[C@@]1(C)C(=O)[C@H](O)C3=C(C)[C@@H](OC(=O)[C@H](O)[C@@H](NC(=O)OC(C)(C)C)c4ccccc4)C[C@@](O)([C@@H](OC(=O)c4ccccc4)[C@H]21)C3(C)C` [Docetaxel] + Cn1cncc1[C@@](N)(c1ccc(Cl)cc1)c1ccc2c(c1)c(-c1cccc(Cl)c1)cc(=O)n2C [tipifarnib] (first compound 0.0001 µM, partner dose 0.01 µM): the cell count amounted to 47.6%.
On to `Nc1nc(F)nc2c1ncn2[C@@H]1O[C@H](CO)[C@@H](O)[C@@H]1O` [fludarabine] + CC1(C)NC(=O)N(c2ccc([N+](=O)[O-])c(C(F)(F)F)c2)C1=O [nilutamide] (first compound 0.2 µM, partner dose 1 µM), for which the cell count came to 25.6%.
With `Nc1ncn([C@H]2C[C@H](O)[C@@H](CO)O2)c(=O)n1` [decitabine] + O=C(CCCCCCC(=O)Nc1ccccc1)NO [vorinostat] (first compound 0.1 µM, partner dose 0.08 µM), the cell count stood at 95.4%.
The result for `CC(=O)c1c(C)c2cnc(Nc3ccc(N4CCNCC4)cn3)nc2n(C2CCCC2)c1=O` [palbociclib] + COc1ccc(-c2ccc3c(N4CCOCC4)nc(N4C[C@@H](C)O[C@@H](C)C4)nc3n2)cc1CO [KU0063794] (first compound 0.04 µM, partner dose 0.02 µM) reads 64.3%; that for `Nc1nc(F)nc2c1ncn2[C@@H]1O[C@H](CO)[C@@H](O)[C@@H]1O` [fludarabine] + O=C(O)C(=O)Nc1sc2c(c1C(=O)O)CCNC2 [TCS401] (first compound 0.2 µM, partner dose 1.66667 µM), 37.7%; that for `Nc1ncn([C@H]2C[C@H](O)[C@@H](CO)O2)c(=O)n1` [decitabine] + COc1cc(Nc2ncc(F)c(Nc3ccc4c(n3)NC(=O)C(C)(C)O4)n2)cc(OC)c1OC [Tamatinib] (first compound 0.1 µM, partner dose 0.4 µM), 83.4%.
With `Nc1nc(F)nc2c1ncn2[C@@H]1O[C@H](CO)[C@@H](O)[C@@H]1O` [fludarabine] + CCc1ccc(CCOc2ccc(CC3SC(=O)NC3=O)cc2)nc1 [pioglitazone] (first compound 0.2 µM, partner dose 2 µM), the cell count was 31.9%.
In the case of `Nc1ccn([C@@H]2O[C@H](CO)[C@@H](O)C2(F)F)c(=O)n1` [gemcitabine] + O=C(Nc1cccc(Cl)c1)Nc1ncc(CCNc2ncnc3ccsc23)s1 [SNS314] (first compound 0.0004 µM, partner dose 0.0008 µM), the cell count turned out to be 84%.
Molecule `Nc1ccn([C@@H]2O[C@H](CO)[C@@H](O)C2(F)F)c(=O)n1` [gemcitabine] + CN(C)S(=O)(=O)c1ccc2c(c1)/C(=C/c1cc3c([nH]1)CCCC3)C(=O)N2 [SU6656] (first compound 0.0004 µM, partner dose 0.4 µM) gave a cell count of 96.1%.
The result for `Nc1ncn([C@H]2C[C@H](O)[C@@H](CO)O2)c(=O)n1` [decitabine] + COc1cc(N2CCC(N3CCN(C)CC3)CC2)ccc1Nc1ncc(Cl)c(Nc2ccccc2S(=O)(=O)C(C)C)n1 [NVP-TAE684] (first compound 0.1 µM, partner dose 0.08 µM) reads 86.3%.
The result for `CC(=O)O[C@@]12CO[C@@H]1C[C@H](O)[C@@]1(C)C(=O)[C@H](O)C3=C(C)[C@@H](OC(=O)[C@H](O)[C@@H](NC(=O)OC(C)(C)C)c4ccccc4)C[C@@](O)([C@@H](OC(=O)c4ccccc4)[C@H]21)C3(C)C` [Docetaxel] + CCCCCCCCCCCC1=C(O)C(=O)C=C(O)C1=O [Embelin] (first compound 0.0001 µM, partner dose 1.2 µM) reads 27.7%.
Regarding `CC(=O)c1c(C)c2cnc(Nc3ccc(N4CCNCC4)cn3)nc2n(C2CCCC2)c1=O` [palbociclib] + O=C(Nc1cccc(Cl)c1)Nc1ncc(CCNc2ncnc3ccsc23)s1 [SNS314] (first compound 0.04 µM, partner dose 0.0008 µM), the cell count stood at 63.7%.
Molecule `CC(=O)O[C@@]12CO[C@@H]1C[C@H](O)[C@@]1(C)C(=O)[C@H](O)C3=C(C)[C@@H](OC(=O)[C@H](O)[C@@H](NC(=O)OC(C)(C)C)c4ccccc4)C[C@@](O)([C@@H](OC(=O)c4ccccc4)[C@H]21)C3(C)C` [Docetaxel] + N#Cc1c(O)c2c(-c3ccc(-c4ccccc4O)cc3)csc2[nH]c1=O [A769662] (first compound 0.0001 µM, partner dose 2 µM) gave a cell count of 43.4%.
The result for `Nc1ccn([C@@H]2O[C@H](CO)[C@@H](O)C2(F)F)c(=O)n1` [gemcitabine] + CC(C)CCN1c2nc(Nc3cc(F)c(O)c(F)c3)ncc2N(C)C(=O)C1C [BID1870] (first compound 0.0004 µM, partner dose 0.2 µM) reads 88.9%; that for `Nc1nc(F)nc2c1ncn2[C@@H]1O[C@H](CO)[C@@H](O)[C@@H]1O` [fludarabine] + N#Cc1c(O)c2c(-c3ccc(-c4ccccc4O)cc3)csc2[nH]c1=O [A769662] (first compound 0.2 µM, partner dose 2 µM), 22.7%.
To `Nc1ccn([C@@H]2O[C@H](CO)[C@@H](O)C2(F)F)c(=O)n1` [gemcitabine] + Cc1cc([N+](=O)[O-])ccc1NS(=O)(=O)c1cc(Cl)ccc1Cl [FH535] (first compound 0.0004 µM, partner dose 1 µM) belongs 97.8%.
To `Nc1ccn([C@@H]2O[C@H](CO)[C@@H](O)C2(F)F)c(=O)n1` [gemcitabine] + Cc1cc(N2CCOCC2)cc2[nH]c(-c3c(NC[C@@H](O)c4cccc(Cl)c4)cc[nH]c3=O)nc12 [BMS536924] (first compound 0.0004 µM, partner dose 0.2 µM) belongs 114%; to `Nc1nc(F)nc2c1ncn2[C@@H]1O[C@H](CO)[C@@H](O)[C@@H]1O` [fludarabine] + CO[C@@H]1[C@H](N(C)C(=O)c2ccccc2)C[C@H]2O[C@]1(C)n1c3ccccc3c3c4c(c5c6ccccc6n2c5c31)C(=O)NC4 [Midostaurin] (first compound 0.2 µM, partner dose 0.08 µM), 22.1%.
For the molecule `Nc1ncn([C@H]2C[C@H](O)[C@@H](CO)O2)c(=O)n1` [decitabine] + O=C1NC(=O)/C(=C/c2ccc(-c3ccc(F)cc3O)o2)S1 [AS252424] (first compound 0.1 µM, partner dose 1 µM), the cell count stood at 101%.
To `Nc1ncn([C@H]2C[C@H](O)[C@@H](CO)O2)c(=O)n1` [decitabine] + CC(C)(C)c1cnc(CSc2cnc(NC(=O)C3CCNCC3)s2)o1 [SNS-032] (first compound 0.1 µM, partner dose 0.01 µM) belongs 94.7%; to `Nc1ccn([C@@H]2O[C@H](CO)[C@@H](O)C2(F)F)c(=O)n1` [gemcitabine] + COc1ccc2c(c1)CCC1C2CCC2(C)C(NCCCCCCN3C(=O)C=CC3=O)CCC12 [U73122] (first compound 0.0004 µM, partner dose 0.4 µM), 79.7%.
On to `Nc1ncn([C@H]2C[C@H](O)[C@@H](CO)O2)c(=O)n1` [decitabine] + COc1cc2c(Oc3ccc4[nH]c(C)cc4c3F)ncnc2cc1OCCCN1CCCC1 [cediranib] (first compound 0.1 µM, partner dose 0.4 µM), for which the cell count stood at 99.8%.
Regarding `Nc1ncn([C@H]2C[C@H](O)[C@@H](CO)O2)c(=O)n1` [decitabine] + CN(C)S(=O)(=O)c1ccc2c(c1)/C(=C/c1cc3c([nH]1)CCCC3)C(=O)N2 [SU6656] (first compound 0.1 µM, partner dose 0.4 µM), the cell count was found to be 80.6%.
In turn, `CC(=O)O[C@@]12CO[C@@H]1C[C@H](O)[C@@]1(C)C(=O)[C@H](O)C3=C(C)[C@@H](OC(=O)[C@H](O)[C@@H](NC(=O)OC(C)(C)C)c4ccccc4)C[C@@](O)([C@@H](OC(=O)c4ccccc4)[C@H]21)C3(C)C` [Docetaxel] + COc1cc(N2CCC(N3CCN(C)CC3)CC2)ccc1Nc1ncc(Cl)c(Nc2ccccc2S(=O)(=O)C(C)C)n1 [NVP-TAE684] (first compound 0.0001 µM, partner dose 0.08 µM) yielded a cell count of 37%.
`Nc1nc(F)nc2c1ncn2[C@@H]1O[C@H](CO)[C@@H](O)[C@@H]1O` [fludarabine] + O=C(Nc1cccc(Cl)c1)Nc1ncc(CCNc2ncnc3ccsc23)s1 [SNS314] (first compound 0.2 µM, partner dose 0.0008 µM): the cell count worked out at 42.4%.
To `CC(=O)O[C@@]12CO[C@@H]1C[C@H](O)[C@@]1(C)C(=O)[C@H](O)C3=C(C)[C@@H](OC(=O)[C@H](O)[C@@H](NC(=O)OC(C)(C)C)c4ccccc4)C[C@@](O)([C@@H](OC(=O)c4ccccc4)[C@H]21)C3(C)C` [Docetaxel] + CC(C)CCN1c2nc(Nc3cc(F)c(O)c(F)c3)ncc2N(C)C(=O)C1C [BID1870] (first compound 0.0001 µM, partner dose 0.2 µM) belongs 24.6%; to `Nc1ncn([C@H]2C[C@H](O)[C@@H](CO)O2)c(=O)n1` [decitabine] + COc1ccc(-c2ccc3c(N4CCOCC4)nc(N4C[C@@H](C)O[C@@H](C)C4)nc3n2)cc1CO [KU0063794] (first compound 0.1 µM, partner dose 0.02 µM), 92.4%.
The result for `Nc1ccn([C@@H]2O[C@H](CO)[C@@H](O)C2(F)F)c(=O)n1` [gemcitabine] + CC1(C)NC(=O)N(c2ccc([N+](=O)[O-])c(C(F)(F)F)c2)C1=O [nilutamide] (first compound 0.0004 µM, partner dose 1 µM) reads 115%; that for `CC(=O)c1c(C)c2cnc(Nc3ccc(N4CCNCC4)cn3)nc2n(C2CCCC2)c1=O` [palbociclib] + CC(C)(C)c1cnc(CSc2cnc(NC(=O)C3CCNCC3)s2)o1 [SNS-032] (first compound 0.04 µM, partner dose 0.01 µM), 79.4%; that for `Nc1ccn([C@@H]2O[C@H](CO)[C@@H](O)C2(F)F)c(=O)n1` [gemcitabine] + Cc1ccc(NC(=O)c2cccc(N(C)C)c2)cc1NC(=O)c1ccc(O)cc1 [ZM336372] (first compound 0.0004 µM, partner dose 2 µM), 101%.
